Measured values reported in the supplement of paper PMC12217912.
This is one part of the list. The full chains were built here from the parent and the listed change. Inactive controls read about 0.05.

B1: TEV protease; numbered along this chain (parent)
chain: MGESLFKGPRDYNPISSSICHLTNESDGHTTSLYGIGFGPFIITNKHLFRRNNGTLVVQSLHGVFKVKDTTTLQQHLVDGRDMIIIRMPKDFPPFPQKLKFREPQREERICLVTTNFQTKSMSSMVSDTSCTFPSGDGIFWKHWIQTKDGQCGSPLVSTRDGFIVGIHSASNFTNTNNYFTSVPKNFMELLTNQEAQQWVSGWRLNADSVLWGGHKVFMVKPEEPFQPVKEATQL

Variants of: B1
Assay: raw area under fraction-flipped curve 0-4 h after induction (AUC4h, not background-subtracted), DNA-recorder readout of cleavage of the substrate (dimensionless); higher = more cleavage of the substrate by the protease variant
Conditions: temperature: 34 °C; time window: 0-4 h after rhamnose induction
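Note: Bxb1 expression induced with 0.2% (w/v) L-rhamnose at OD600 near 0.5, cultures sampled hourly, flipped fraction per protease–substrate barcode pair counted by paired-end Illumina sequencing.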

| Variant | area with substrate EGLYFQS | area with substrate EFLYFQS | area with substrate EILYFQS | area with substrate EMLYFQS | area with substrate ESLYFQS | area with substrate EHLYFQS | area with substrate EKLYFQS | area with substrate ELLYFQS | area with substrate EQLYFQS | area with substrate ERLYFQS |
| --- | --- | --- | --- | --- | --- | --- | --- | --- | --- | --- |
| MGESLFKGPRDYNPISSSICHLTNESDGHTTSLWGIGFGPFIITNKHLFRRNNGTLVVQSLHGVFKVKDTTTLQQHLVDGRDMIIIRMPKDFPPFPQKLKFREPQREERICLVTTNFQTKSMSSMVSDTSCTFPSGDGIFWKHWIQTKDGQCGSPLVSTRDGFIVGIHSASNFTNTNNYFTSVPKNFMELLTNQEAQQWVSGWRLNADSVLWGGHKVFMVKPEEPFQPVKEATQL [Y34W] | 0.0747 | – | – | – | – | – | – | – | – | – |
| MGESLFKGPRDYNPISSSICHLTNESDGHTTSLKGIGFGPFIITNKHLFRRNNGTLVVQSLHGVFKVKDTTTLQQHLVDGRDMIIIRMPKDFPPFPQKLKFREPQREERICLVTTNFQTKSMSSMVSDTSCTFPSGDGIFWKHWIQTKDGQCGSPLVSTRDGFIVGIHSASNFTNTNNYFTSVPKNFMELLTNQEAQQWVSGWRLNADSVLWGGHKVFMVKPEEPFQPVKEATQL [Y34K] | 0.0874 | 0.107 | 0.0817 | 0.106 | 0.081 | – | – | – | – | – |
| MGESLFKGPRDYNPISSSICHLTNESDGHTTSLYGIGFGPFIITNKHLFRRNNGTLVVQSLHGVFKVKDTTTLQQHLVDGRDMIIIRMPKDFPPFPQKLKFREPQREERICLVTTNFQTKCMSSMVSDTSCTFPSGDGIFWKHWIQTKDGQCGSPLVSTRDGFIVGIHSASNFTNTNNYFTSVPKNFMELLTNQEAQQWVSGWRLNADSVLWGGHKVFMVKPEEPFQPVKEATQL [S121C] | 0.087 | 0.107 | 0.113 | 0.14 | 0.115 | 0.133 | 0.127 | 0.0832 | 0.12 | 0.0984 |
| MGESLFKGPRDYNPISSSICHLTNESDGHTTSLYGIGFGPFIITNKHLFRRNNGTLVVQSLHGVFKVKDTTTLQQHLVDGRDMIIIRMPKDFPPFPQKLKFREPQREERICLVTTNFQTKSMSSMVSDTSCTFPSGDGIFWKHWIQTSDGQCGSPLVSTRDGFIVGIHSASNFTNTNNYFTSVPKNFMELLTNQEAQQWVSGWRLNADSVLWGGHKVFMVKPEEPFQPVKEATQL [K148S] | 0.093 | 0.0915 | 0.0898 | 0.106 | 0.0813 | – | 0.0957 | – | – | – |
| MGESLFKGPRDYNPISSSICHLTNESDGHTTSLYGIGFGPFIITNKHLFRRNNGTLVVQSLHGVFKVKDTTTLQQHLVDGRDMIIIGMPKDFPPFPQKLKFREPQREERICLVTTNFQTKSMSSMVSDTSCTFPSGDGIFWKHWIQTKDGQCGSPLVSTRDGFIVGIHSASNFTNTNNYFTSVPKNFMELLTNQEAQQWVSGWRLNADSVLWGGHKVFMVKPEEPFQPVKEATQL [R87G] | 0.0829 | – | – | – | 0.0786 | – | – | 0.0797 | – | 0.0799 |
| MGESLFKGPRDYNPISSSICHLTNESDGHTTSLYGIGFGPFIITNKHLFRRNNGTLVVQSLHGVFKVKDTTTLQQHLVDGRDMIIIRMPKDFPPFPQKLKFREPQREERICLVTTNFQTKSMSSMVSDTSCTFPSGDGIFWKHWIQTKDGQCGSPLISTRDGFIVGIHSASNFTNTNNYFTSVPKNFMELLTNQEAQQWVSGWRLNADSVLWGGHKVFMVKPEEPFQPVKEATQL [V157I] | 0.096 | – | 0.0861 | – | 0.0937 | – | 0.0963 | 0.0559 | 0.0984 | 0.127 |
| MGESLFEGPRDYNPISSSICHLTNESDGHTTSLYGIGFGPFIITNKHLFRRNNGTLVVQSLHGVFKVKDTTTLQQHLVDGRDMIIIRMPKDFPPFPQKLKFREPQREERICLVTTNFQTKSMSSMVSDTSCTFPSGDGIFWKHWIQTKDGQCGSPLVSTRDGFIVGIHSASNFTNTNNYFTSVPKNFMELLTNQEAQQWVSGWRLNADSVLWGGHKVFMVKPEEPFQPVKEATQL [K7E] | 0.0987 | – | – | – | – | 0.173 | – | – | 0.103 | 0.1 |
| MGESLFKGPRDYNPISSSICHLTNESDGHTTSLYGIGFGPFIITNKHLFRRNNGTLVVQSLHGVFKVKDTTTLQQHLVDGRDMIIIRMPKDFPPFPQKLKFREPQRFERICLVTTNFQTKSMSSMVSDTSCTFPSGDGIFWKHWIQTKDGQCGSPLVSTRDGFIVGIHSASNFTNTNNYFTSVPKNFMELLTNQEAQQWVSGWRLNADSVLWGGHKVFMVKPEEPFQPVKEATQL [E107F] | 0.087 | – | 0.0862 | – | 0.122 | – | – | 0.118 | 0.0974 | 0.0994 |
| MGESLFKGPRDYNPISSSICHLTNESDGHTTSLYGIGFGPFIITNKHLFRRNNGTLVVQSLHGVFKVKDTTTLQQHLVDGRDMIIIRMPKDFPPFPQKLKFREPQREERICLVTTNFQTKSMSSMVSDTSCTFPSGDGIHWKHWIQTKDGQCGSPLVSTRDGFIVGIHSASNFTNTNNYFTSVPKNFMELLTNQEAQQWVSGWRLNADSVLWGGHKVFMVKPEEPFQPVKEATQL [F140H] | 0.0705 | – | – | 0.0751 | 0.0825 | – | – | 0.0647 | – | 0.0726 |
| MGESLFKGPRDYNPISSSICHLTNESDGHTTSLYGIGFGPFIITNKHLFRRNNGTLVVQSLHGVFKVKDTTTLQQHLVDGRDMIIIRMPKDFPPFPQKLKFREPQREERICLVTTNFQTKSMSSMVSDTSCTFPSGDGIFWKHWIQTKDGQCESPLVSTRDGFIVGIHSASNFTNTNNYFTSVPKNFMELLTNQEAQQWVSGWRLNADSVLWGGHKVFMVKPEEPFQPVKEATQL [G153E] | – | 0.0454 | – | 0.041 | 0.0668 | 0.0551 | 0.0487 | – | 0.0689 | 0.0582 |

Same assay, conditions: temperature: 34 °C; time window: 0-4 h after rhamnose induction

| Variant | area with substrate ETLYFQS | area with substrate EVLYFQS | area with substrate EPLYFQS | area with substrate EWLYFQS | area with substrate EELYFQS |
| --- | --- | --- | --- | --- | --- |
| MGESLFKGPRDYNPISSSICHLTNESDGHTTSLYGIGFGPFIITNKHLFRRNNGTLVVQSLHGVFKVKDTTTLQQHLVDGRDMIIIRMPKDFPPFPQKLKFREPQREERICLVTTNFQTKCMSSMVSDTSCTFPSGDGIFWKHWIQTKDGQCGSPLVSTRDGFIVGIHSASNFTNTNNYFTSVPKNFMELLTNQEAQQWVSGWRLNADSVLWGGHKVFMVKPEEPFQPVKEATQL [S121C] | 0.113 | 0.0979 | – | – | – |
| MGESLFKGPRDYNPISSSICHLTNESDGHTTSLYGIGFGPFIITNKHLFRRNNGTLVVQSLHGVFKVKDTTTLQQHLVDGRDMIIIRMPKDFPPFPQKLKFREPQREERICLVTTNFQTKSMSSMVSDTSCTFPSGDGIFWKHWIQTSDGQCGSPLVSTRDGFIVGIHSASNFTNTNNYFTSVPKNFMELLTNQEAQQWVSGWRLNADSVLWGGHKVFMVKPEEPFQPVKEATQL [K148S] | – | 0.0744 | 0.101 | – | – |
| MGESLFKGPRDYNPISSSICHLTNESDGHTTSLYGIGFGPFIITNKHLFRRNNGTLVVQSLHGVFKVKDTTTLQQHLVDGRDMIIIGMPKDFPPFPQKLKFREPQREERICLVTTNFQTKSMSSMVSDTSCTFPSGDGIFWKHWIQTKDGQCGSPLVSTRDGFIVGIHSASNFTNTNNYFTSVPKNFMELLTNQEAQQWVSGWRLNADSVLWGGHKVFMVKPEEPFQPVKEATQL [R87G] | – | 0.0828 | – | – | – |
| MGESLFKGPRDYNPISSSICHLTNESDGHTTSLYGIGFGPFIITNKHLFRRNNGTLVVQSLHGVFKVKDTTTLQQHLVDGRDMIIIRMPKDFPPFPQKLKFREPQREERICLVTTNFQTKSMSSMVSDTSCTFPSGDGIFWKHWIQTKDGQCGSPLISTRDGFIVGIHSASNFTNTNNYFTSVPKNFMELLTNQEAQQWVSGWRLNADSVLWGGHKVFMVKPEEPFQPVKEATQL [V157I] | – | 0.104 | 0.117 | 0.0794 | – |
| MGESLFEGPRDYNPISSSICHLTNESDGHTTSLYGIGFGPFIITNKHLFRRNNGTLVVQSLHGVFKVKDTTTLQQHLVDGRDMIIIRMPKDFPPFPQKLKFREPQREERICLVTTNFQTKSMSSMVSDTSCTFPSGDGIFWKHWIQTKDGQCGSPLVSTRDGFIVGIHSASNFTNTNNYFTSVPKNFMELLTNQEAQQWVSGWRLNADSVLWGGHKVFMVKPEEPFQPVKEATQL [K7E] | – | 0.0956 | – | – | – |
| MGESLFKGPRDYNPISSSICHLTNESDGHTTSLYGIGFGPFIITNKHLFRRNNGTLVVQSLHGVFKVKDTTTLQQHLVDGRDMIIIRMPKDFPPFPQKLKFREPQRFERICLVTTNFQTKSMSSMVSDTSCTFPSGDGIFWKHWIQTKDGQCGSPLVSTRDGFIVGIHSASNFTNTNNYFTSVPKNFMELLTNQEAQQWVSGWRLNADSVLWGGHKVFMVKPEEPFQPVKEATQL [E107F] | – | 0.0991 | – | – | – |
| MGESLFKGPRDYNPISSSICHLTNESDGHTTSLYGIGFGPFIITNKHLFRRNNGTLVVQSLHGVFKVKDTTTLQQHLVDGRDMIIIRMPKDFPPFPQKLKFREPQREERICLVTTNFQTKSMSSMVSDTSCTFPSGDGIHWKHWIQTKDGQCGSPLVSTRDGFIVGIHSASNFTNTNNYFTSVPKNFMELLTNQEAQQWVSGWRLNADSVLWGGHKVFMVKPEEPFQPVKEATQL [F140H] | 0.0453 | – | 0.0654 | 0.0637 | 0.0355 |
